Series [1] deals with the molecule itself. Kind of series: native MS; protomer exchange: 1:1 mix of 15N- and 14N-labelled SDAec (or His-tagged and untagged IscS), room temperature, 200 mM ammonium acetate pH 8.5, EMR Orbitrap; ratio of exchanged dimer to the sum of unexchanged dimers; α2β2γ2 (or IscS dimer) to protomers and back.
Series [2] concerns the target T1, NFS1(Δ1–55) with N-terminal His6 tag (human, UniProt Q9Y697, covalently attached PLP).
T1 construct: NFS1, human cysteine desulfurase, Δ1–55 (residues 56 to the C-terminus); The NFS1 chain of m1; also called α subunit; source: recombinant, co-purified within the SDAec complex; not shown: His6, N-terminal, kept
The series is described as above. The conditions noted are these: both partners purified.

T1 sequence (Q9Y697 56-457, stated change not applied): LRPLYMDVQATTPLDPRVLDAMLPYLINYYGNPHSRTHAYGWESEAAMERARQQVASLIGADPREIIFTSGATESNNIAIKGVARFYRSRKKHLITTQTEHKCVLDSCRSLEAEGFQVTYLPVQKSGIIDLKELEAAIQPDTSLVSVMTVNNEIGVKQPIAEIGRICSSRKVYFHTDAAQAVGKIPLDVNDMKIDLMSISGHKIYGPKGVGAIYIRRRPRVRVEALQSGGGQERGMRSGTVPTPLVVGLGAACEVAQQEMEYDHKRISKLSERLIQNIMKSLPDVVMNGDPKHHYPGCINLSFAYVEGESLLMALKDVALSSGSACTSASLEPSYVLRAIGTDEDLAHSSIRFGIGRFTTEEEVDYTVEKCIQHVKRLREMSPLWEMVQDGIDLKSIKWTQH

B1: NFS1(Δ[…])-ISD11(S11A)-ACPec complex with the His6 tag on NFS1 cleaved by TEV protease (complex)
chain 1: [about 400 residues with changes omitted]
chain 2: [about 100 residues with changes omitted]
chain 3: MSTIEERVKKIIGEQLGVKQEEVTNNASFVEDLGADSLDTVELVMALEEEFDTEIPDEEAEKITTVQAAIDYINGHQA
modifications: covalently attached PLP | acyl-4′PPT (assumed mass 523 Da)
notes: single glycine residue before residue 56 left after TEV cleavage; NFS1, human cysteine desulfurase, Δ[…] (residues 56 to the C-terminus); ISD11 (LYRM superfamily), human, S11A; Escherichia coli acyl-carrier protein (ACPec) associated with NFS1-ISD11; A TEV site was introduced by mutagenesis into the original NFS1 plasmid; also called untagged SDAec; cleaved SDAec; not shown: His6, N-terminal, …
With B1, the “exchanged-to-unexchanged ratio at 24 h” value in series [1] is 0.79.

B2: ISD11(S11A) (natural protein)
chain: not shown
notes: ISD11 (LYRM superfamily), human, S11A; The ISD11 chain of m1; also called β subunit; source: recombinant, co-purified within the SDAec complex
As to B2, the binding result in series [2] is “binds”.

(Values after publication PMC11840927, “Frataxin Traps Low Abundance Quaternary Structure to Stimulate Human Fe–S Cluster Biosynthesis” (Biochemistry, 2025).)
